Experimental data published in PubChem BioAssay (NCATS).
Where “and” joins values, the source holds several entries; their conditions need not be identical. Identical values can stand only once. The inconclusive results got no clear call from the source; some entries with a clear call stand among them for comparison. For part of these data: No potency is given beside an inconclusive call; the fits are too rough. Calls of active or inactive are those of the source. The call rests on the fitted dose curve; in most records, active means well fitted curve in the direction sought with a large enough effect; inconclusive means small, poorly fitted or top-dose-only effect, or another doubt; inactive means no such curve, though single readings can be large; an effect the other way counts as inactive or inconclusive.

Tests used:
[1] = NS1 protein of Zika virus - qHTS assay to identify small molecule inhibitors in human HEK 293 cells (AID 1347053); further: nearly all actives have a fitted effect of over 55% in size
How it was run: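 HEK 293 cells pretreated with compound for 1 h, then infected with ZIKV MR766 (MOI 0.5) for 24 h at 37 C. NS1 detected by TR-FRET with two anti-NS1 antibodies; normalized to uninfected (0%) and infected (100%) wells.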

[2] = qHTS of pediatric cancer cell lines to identify multiple opportunities for drug repurposing: Primary screen for DAOY cells (AID 1347090); details: DAOY medulloblastoma viability, CellTiter-Glo luminescence, 48 h; activity change, negative = cytotoxic: at 46 µM (top of the series); further: nearly all actives have a fitted effect of over 55% in size
How it was run: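 Cell viability, CellTiter-Glo luminescence; 500-1,000 cells/well, 8- or 11-point titration, 48 h compound exposure at 37 degrees C, 5% CO2. Controls: DMSO neutral, bortezomib 2.3 µM final as positive.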

[3] = qHTS of pediatric cancer cell lines to identify multiple opportunities for drug repurposing: Primary screen for BT-37 cells (AID 1347094);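 on activity change, negative = cytotoxic: plate controls were DMSO for no effect and bortezomib for full effect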
How it was run: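 Cells seeded at 500-1,000 cells/well in growth media, rested 5 hours at 37 degrees C, 5% CO2, then dosed; MIPE compounds at 11-point (from 0.78 nM) and NPC at 8-point (from 0.59 nM) final concentrations. Viability by CellTiter-Glo luminescence after 48 hours.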

[4] = qHTS of pediatric cancer cell lines to identify multiple opportunities for drug repurposing: Primary screen for U-2 OS cells (AID 1347096); further: nearly all actives have a fitted effect of over 50% in size
How it was run: (§1)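 Cells (500-1,000/well) rested 5 h, then received compounds for 48 h; metabolically active cells were measured by CellTiter-Glo luminescence. Final concentrations spanned up to 46 µM (MIPE, 11-point) or 0.59 nM-46 µM (NPC, 8-point) in primary screens, 11-point in follow-ups.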

[5] = qHTS of pediatric cancer cell lines to identify multiple opportunities for drug repurposing: Primary screen for LAN-5 cells (AID 1347100);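 on activity change, negative = cytotoxic: plate controls were DMSO neutral control for no effect and bortezomib positive control for full effect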
How it was run: as §1

[6] = Quantitative High-Throughput drug screen in 47 multiple myeloma cell lines against the NCATS MIPE library collection: Karpas417_ECACC cell viability assay (AID 1918961); details: Karpas417 myeloma viability, CellTiter-Glo ATP luminescence, 48 h; viability (% of DMSO): at 45.8 µM (top of the series)
How it was run: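 We plated 500 myeloma cells per well, pinned in MIPE 4.0 compounds, and incubated for 48 hours at 37C. ATP was then quantified with CellTiter-Glo, with DMSO and media-only wells defining 100% and 0%.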

[7] = Quantitative High-Throughput drug screen in 47 multiple myeloma cell lines against the NCATS MIPE library collection: KHM11_PLB cell viability assay (AID 1918962); details: KHM11 myeloma cell viability, CellTiter-Glo ATP luminescence, 48 h; viability, % of DMSO control: at 45.8 µM (top of the series); further: nearly all actives have a fitted effect of over 35% in size
How it was run: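 Primary qHTS used for cherry-picking: cells at 500/well, library compounds for 48 h (37C, 5% CO2), luminescent ATP assay.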

[8] = Quantitative High-Throughput drug screen in 47 multiple myeloma cell lines against the NCATS MIPE library collection: OCIMY1_PLB cell viability assay (AID 1918979); further: nearly all actives have a fitted effect of over 35% in size
How it was run: (§2)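 Plated at 500 cells per well, myeloma lines received MIPE 4.0 compounds by pin tool. Following 48 h culture at 37 °C, CellTiter-Glo luminescence gave viability relative to DMSO and media-only controls.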

HaCat = assay: Cytotoxic Profiling of Annotated Libraries Using Quantitative High-Throughput Screening (AID 1296008); details: Five cell lines viability, CellTiter-Glo ATP luminescence, 48-72 h; max response: stronger effect = lower value; further: nearly all actives have a fitted effect of over 60% in size; on max response: on the % scale 0 is the no-effect control and ±100 the full control effect
How it was run: (§3)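 Cytotoxicity was measured as CellTiter-Glo ATP luminescence, read after 10 min at room temperature. Compound treatment of the cells lasted 48 or 72 hr at 37 degrees Celsius in a qHTS format.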

KB-3-1 = assay: as above; details: Five cell lines viability, CellTiter-Glo ATP luminescence, 48-72 h; max response: stronger effect = lower value
How it was run: as §3

MCC-13 = assay: qHTS assay to identify novel small-molecules to repurpose for Merkel cell carcinoma treatment (AID 1296009); details: MCC and control cell lines, CellTiter-Glo viability, 72 h; series mostly up to 46 µM; further: nearly all actives have a fitted effect of over 60% in size
How it was run: (§4)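 After compound transfer in DMSO, plates were kept 72 hr at 37 degree celsius. Luminescent ATP signal from CellTiter-Glo served as viability measure, normalized against DMSO and no-cell controls.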

MKL-1 = assay: as above; details: MCC and control cell lines, CellTiter-Glo viability, 72 h; activity change, negative = cytotoxicity: at 46 µM (top of the series)
How it was run: as §4

MKL-2 = assay: as above; details: MCC and control cell lines, CellTiter-Glo viability, 72 h; activity change, negative = cytotoxicity: at 46 µM (top of the series)
How it was run: as §4

UISO = assay: as above; details: MCC and control cell lines, CellTiter-Glo viability, 72 h; activity change, negative = cytotoxicity: at 46 µM (top of the series)
How it was run: as §4

WaGa = assay: as above; details: MCC and control cell lines, CellTiter-Glo viability, 72 h; series mostly up to 46 µM
How it was run: as §4

NIH3T3 = assay: Cytotoxic Profiling of Annotated Libraries Using Quantitative High-Throughput Screening (AID 1296008); details: Five cell lines viability, CellTiter-Glo ATP luminescence, 48-72 h; max response: stronger effect = lower value; further: nearly all actives have a fitted effect of over 60% in size; on max response: on the % scale 0 is the no-effect control and ±100 the full control effect
How it was run: as §3

SKOV3 = assay: Primary qHTS to identify gynecologic anti-cancer compounds using libraries of approved drugs and bioactive compounds (AID 1345084); details: Gynecologic cancer cell panel viability, ATPlite luminescence, 48 h; series mostly up to 57.5 µM; further: nearly all actives have a fitted effect of over 55% in size; on activity change, negative = cytotoxicity: on the % scale 0 is the no-effect control and ±100 the full control effect
How it was run: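 ATP-based viability (ATPlite), 1,000 cells/well, 16 h pre-incubation, 48 h compound at 37 C, 5% CO2, 15 min RT before read.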

[9] = Quantitative High-Throughput drug screen in 47 multiple myeloma cell lines against the NCATS MIPE library collection: KMS34_JCRB cell viability assay (AID 1918985); further: nearly all actives have a fitted effect of over 40% in size
How it was run: as §2

[10] = Quantitative High-Throughput drug screen in 47 multiple myeloma cell lines against the NCATS MIPE library collection: SKMM1_PLB cell viability assay (AID 1919863); details: SKMM1 myeloma viability, CellTiter-Glo ATP, 48 h; viability: stronger effect = lower value; further: nearly all actives have a fitted effect of over 35% in size
How it was run: as §2

[11] = Quantitative High-Throughput drug screen in 47 multiple myeloma cell lines against the NCATS MIPE library collection: UTMC2_PLB cell viability assay (AID 1919868); details: CellTiter-Glo ATP luminescence, 48 h; viability (% of DMSO control): at 45.8 µM (top of the series); further: nearly all actives have a fitted effect of over 55% in size
How it was run: as §2
Potency means the concentration at half of the fitted maximal effect; tags describe the fitted curve by direction and shape.

SMILES: CC(C)=CCCC(C)=CCCC(C)=CCSc1ccccc1C(=O)O
- Potency [1]: inconclusive [inhibitor, single point]
- Potency [2]: inconclusive [cytotoxic, partial curve]
- Potency [3]: active: 7.69 µM
- Potency [4]: inconclusive [cytotoxic, partial curve]
- Potency [5]: inconclusive [cytotoxic, full curve]
- Potency [6]: active: 0.235 µM
- Potency [7]: active: 1.18 µM
- Potency [8]: active: 0.0332 µM
- Potency (HaCat): inconclusive [inhibitor, full curve]
- Potency (KB-3-1): active: 4.69 µM
- Potency (MCC-13): inconclusive [inhibitor, partial curve]
- Potency (MKL-1): inconclusive [inhibitor, single point]
- Potency (MKL-2): inconclusive [inhibitor, partial curve, poor fit]
- Potency (UISO): inconclusive [inhibitor, partial curve]
- Potency (WaGa): inconclusive [inhibitor, partial curve]

SMILES: NC(=O)c1ncn([C@@H]2O[C@H](CO)[C@@H](O)[C@H]2O)c1N
- Potency [3]: inactive
- Potency [5]: inactive

SMILES: CC1=C(/C=C/C(C)=C/C=C/C(C)=C/C(=O)Nc2ccc(O)cc2)C(C)(C)CCC1
- Potency [1]: inconclusive [inhibitor, single point]
- Potency [2]: inconclusive [cytotoxic, single point]
- Potency [3]: active: 15.5 µM
- Potency [4]: active: 26.6 µM
- Potency [5]: inconclusive [cytotoxic, single point]
- Potency (KB-3-1): inconclusive [inhibitor, single point]
- Potency (NIH3T3): active: 21.1 µM
- Potency (MCC-13): inconclusive [inhibitor, single point]
- Potency (WaGa): active: 23.7 µM
- Potency (SKOV3): inconclusive [cytotoxic, single point]

SMILES: C[C@H](NC(=O)Cc1cc(F)cc(F)c1)C(=O)N[C@@H]1C(=O)N(C)c2ccccc2-c2ccccc21
- Potency [2]: active: 11.8 µM
- Potency [3]: inconclusive [cytotoxic, single point]
- Potency [5]: inactive
- Potency [6]: inconclusive [cytotoxic, full curve, poor fit]
- Potency [7]: inconclusive [rising, full curve, poor fit]
- Potency [8]: inconclusive [rising, full curve, poor fit]
- Potency [9]: inconclusive [cytotoxic, single point]
- Potency [10]: inconclusive [cytotoxic, single point]
- Potency [11]: inconclusive [rising, partial curve, poor fit]
- max response (KB-3-1): inactive: 1.83%
- outcome (KB-3-1): inactive
- Potency (MKL-2): inconclusive [inhibitor, partial curve, poor fit]
- Potency (WaGa): inconclusive [inhibitor, single point]
- Potency (SKOV3): inactive

SMILES: CN(NC(=O)CC(=O)NN(C)C(=S)c1ccccc1)C(=S)c1ccccc1
- Potency (KB-3-1): active: 0.0366 µM
- Potency (NIH3T3): active: 51.7 nM and active: 26.3 nM
- Potency (SKOV3): inconclusive [cytotoxic, full curve, poor fit]

SMILES: O=C(c1ccc(Nc2nccc(-c3cc4ccccc4s3)n2)cc1)N1CCC(N2CCCC2)CC1
- Potency [1]: active: 6.62 µM
- Potency [4]: active: 23.5 µM
- Potency [7]: active: 3.72 µM
- Potency [9]: active: 11.8 µM
- Potency (HaCat): inconclusive [inhibitor, full curve, poor fit]
- Potency (KB-3-1): inconclusive [inhibitor, single point]
- Potency (MCC-13): inconclusive [inhibitor, single point]
- Potency (UISO): active: 18.7 µM
- Potency (WaGa): inconclusive [inhibitor, single point]
- Potency (SKOV3): active: 25.1 µM

SMILES: CCC[C@H](NC(=O)C(C#N)=Cc1cccc(Br)n1)c1ccccc1
- Potency [1]: active: 14.8 µM
- Potency [3]: inconclusive [cytotoxic, single point]
- Potency [8]: active: 6.62 µM
- Potency [10]: active: 2.96 µM
- Potency [11]: active: 2.09 µM
- Potency (HaCat): inconclusive [inhibitor, single point]
- Potency (KB-3-1): inconclusive [inhibitor, single point]
- Potency (MCC-13): inconclusive [inhibitor, single point]
- Potency (MKL-1): inconclusive [inhibitor, single point]
- Potency (MKL-2): inconclusive [inhibitor, single point]
- Potency (UISO): inconclusive [inhibitor, single point]
- Potency (WaGa): inconclusive [inhibitor, single point]
